Experiments:
PARP7FL = biological target: T1, PARP7FL (Homo sapiens, UniProt Q7Z3E1); assay: ADP-ribosylation plate assay, PARP7FL
T1 sequence (Q7Z3E1 1-657): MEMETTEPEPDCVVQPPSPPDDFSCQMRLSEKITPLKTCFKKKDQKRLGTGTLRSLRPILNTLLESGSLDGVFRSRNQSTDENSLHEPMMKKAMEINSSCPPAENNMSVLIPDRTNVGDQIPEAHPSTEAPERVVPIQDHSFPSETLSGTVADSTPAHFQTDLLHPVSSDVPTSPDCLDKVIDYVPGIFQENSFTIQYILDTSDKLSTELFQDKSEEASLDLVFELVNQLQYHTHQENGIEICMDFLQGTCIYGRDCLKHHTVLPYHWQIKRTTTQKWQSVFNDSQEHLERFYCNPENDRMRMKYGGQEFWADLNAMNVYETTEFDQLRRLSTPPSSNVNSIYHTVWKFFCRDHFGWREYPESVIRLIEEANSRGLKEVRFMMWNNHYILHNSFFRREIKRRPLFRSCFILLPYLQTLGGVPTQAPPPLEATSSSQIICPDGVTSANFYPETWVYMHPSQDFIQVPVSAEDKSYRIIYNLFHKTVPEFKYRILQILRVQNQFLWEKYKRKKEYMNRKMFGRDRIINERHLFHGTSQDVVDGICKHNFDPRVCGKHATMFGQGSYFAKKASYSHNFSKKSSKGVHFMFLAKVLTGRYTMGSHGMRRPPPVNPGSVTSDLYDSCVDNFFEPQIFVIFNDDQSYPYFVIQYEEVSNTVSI

PARP10cat = biological target: T2, PARP10cat (Homo sapiens, UniProt Q53GL7); assay: ADP-ribosylation plate assay, PARP10cat
T2 sequence (Q53GL7 806-1025 limits assumed): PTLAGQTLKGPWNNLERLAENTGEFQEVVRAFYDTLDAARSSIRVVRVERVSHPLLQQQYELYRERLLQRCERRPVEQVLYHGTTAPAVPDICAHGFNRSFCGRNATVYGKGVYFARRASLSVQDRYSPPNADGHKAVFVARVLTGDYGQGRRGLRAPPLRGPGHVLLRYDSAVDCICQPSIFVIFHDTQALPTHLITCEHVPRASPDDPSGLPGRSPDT

PARP12cat = biological target: T3, PARP12cat (Homo sapiens, UniProt Q9H0J9); assay: ADP-ribosylation plate assay, PARP12cat
T3 sequence (Q9H0J9 484-698 limits assumed): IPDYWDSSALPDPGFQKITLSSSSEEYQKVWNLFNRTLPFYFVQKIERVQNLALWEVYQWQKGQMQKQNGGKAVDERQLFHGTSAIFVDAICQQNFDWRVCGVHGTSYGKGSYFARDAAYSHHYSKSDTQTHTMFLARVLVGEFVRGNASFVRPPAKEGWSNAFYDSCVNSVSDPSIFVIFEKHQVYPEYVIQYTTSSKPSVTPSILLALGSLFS

PARP-13.1 = assay: Endogenous PARP-13.1 protein levels in A549 cells, western blot; conditions: A549 cells treated with Phthal01
MycX2-PARP-13.2 = conditions: HEK 293 T cell time course, 1 μM

`N#Cc1ccc(N2CCN(C(=O)c3cc(Cc4n[nH]c(=O)c5ccccc45)ccc3F)CC2)nc1` [Phthal01, 6-(4-(2-fluoro-5-((4-oxo-3,4-dihydrophthalazin-1-yl)methyl)benzoyl)piperazin-1-yl)nicotinonitrile] gave an IC50 (PARP7FL) of 14 nM, an IC50 (PARP10cat) of 860 ± 300 nM and an IC50 (PARP12cat) greater than 3000 nM. For the same compound, the “levels of endogenous PARP-13.1” value (PARP-13.1) was “did not change” and the “protein levels of ectopically expressed MycX2-PARP-13.2” value (MycX2-PARP-13.2) was “increased”.

— paper PMC7880690, “Chemical genetics and proteome-wide site mapping reveal cysteine MARylation by PARP-7 on immune-relevant protein targets” (eLife, 2021)
